From the supplement of paper PMC12645437, “Orthogonal IMiD-Degron Pairs Induce Selective Protein Degradation in Cells” (ACS Chemical Biology, 2025)
Some of the results follow.

B1: Q9UKT9 (peptide)
chain: FTCEICGHWFTQKGNLLRHIKL
B2: Q9UKT9 (peptide)
chain: FMCNQCGRSFTQKGNLLRHIKL
B3: Q9UKT9 (peptide)
chain: FDCNQCGHPFTQKGNLLRHIKL
B4: Q9UKT9 (peptide)
chain: FFCNQCGAAFTQKGNLLRHIKL
B5: Q9UKT9 (peptide)
chain: FLCPICGHQFTQKGNLLRHIKL
B6: Q9UKT9 (peptide)
chain: LMCNQCGFFCTQKGNLLRHIKL
B7: Q9UKT9 (peptide)
chain: FLCPICGHDFTQKGNLLRHIKL
B8: Q9UKT9 (peptide)
chain: LGCPICGFGCTQKGNLLRHIKL
B9: Q9UKT9 (peptide)
chain: FCCPICGAIFTQKGNLLRHIKL
B10: Q9UKT9 (peptide)
chain: FTCEVCGAGFTQKGNLLRHIKL
B11: Q9UKT9 (peptide)
chain: FQCNQCGAMFTQKGNLLRHIKL
B12: Q9UKT9 (peptide)
chain: FLCNQCGHFFTQKGNLLRHIKL
B13: Q9UKT9 (peptide)
chain: LKCNQCGFQCTQKGNLLRHIKL
B14: Q9UKT9 (peptide)
chain: LCCNQCGFPCTQKGNLLRHIKL
B15: Q9UKT9 (peptide)
chain: FHCNVCGAFFTQKGNLLRHIKL
B16: Q9UKT9 (peptide)
chain: FKCPICGARFTQKGNLLRHIKL
B17: Q9UKT9 (peptide)
chain: LRCPICGFMCTQKGNLLRHIKL
B18: Q9UKT9 (peptide)
chain: FYCDVCGAWFTQKGNLLRHIKL
B19: Q9UKT9 (peptide)
chain: FRCPICGRAFTQKGNLLRHIKL
B20: Q9UKT9 (peptide)
chain: FLCEICGHFFTQKGNLLRHIKL
B21: Q9UKT9 (peptide)
chain: LWCPICGFDCTQKGNLLRHIKL
B22: Q9UKT9 (peptide)
chain: LICEICGFVCTQKGNLLRHIKL
B23: Q9UKT9 (peptide)
chain: FFCSVCGHIFTQKGNLLRHIKL
B24: Q9UKT9 (peptide)
chain: FACNQCGAFFTQKGNLLRHIKL
B25: Q9UKT9 (peptide)
chain: FACNQCGRFFTQKGNLLRHIKL
B26: Q9UKT9 (peptide)
chain: FKCEICGRQFTQKGNLLRHIKL
B27: Q9UKT9 (peptide)
chain: LDCNQCGFRCTQKGNLLRHIKL
B28: Q9UKT9 (peptide)
chain: FFCPICGHYFTQKGNLLRHIKL
B29: Q9UKT9 (peptide)
chain: FECDICGAEFTQKGNLLRHIKL
B30: Q9UKT9 (peptide)
chain: FACNICGAGFTQKGNLLRHIKL
B31: Q9UKT9 (peptide)
chain: FECDQCGAAFTQKGNLLRHIKL
B32: Q9UKT9 (peptide)
chain: FHCDICGACFTQKGNLLRHIKL
B33: Q9UKT9 (peptide)
chain: FHCNVCGARFTQKGNLLRHIKL
B34: Q9UKT9 (peptide)
chain: FWCEVCGAGFTQKGNLLRHIKL
B35: Q9UKT9 (peptide)
chain: FYCDQCGASFTQKGNLLRHIKL
B36: Q9UKT9 (peptide)
chain: LTCPICGFYCTQKGNLLRHIKL
B37: Q9UKT9 (peptide)
chain: FFCEICGRAFTQKGNLLRHIKL
B38: Q9UKT9 (peptide)
chain: LACEICGFCCTQKGNLLRHIKL
B39: Q9UKT9 (peptide)
chain: FICPVCGAIFTQKGNLLRHIKL
B40: Q9UKT9 (peptide)
chain: FGCNQCGHQFTQKGNLLRHIKL
B41: Q9UKT9 (peptide)
chain: FACEICGHKFTQKGNLLRHIKL
B42: Q9UKT9 (peptide)
chain: FQCPVCGAEFTQKGNLLRHIKL
B43: Q9UKT9 (peptide)
chain: FQCEICGAFFTQKGNLLRHIKL
B44: Q9UKT9 (peptide)
chain: FTCEICGREFTQKGNLLRHIKL
B45: Q9UKT9 (peptide)
chain: FICDVCGAMFTQKGNLLRHIKL
B46: Q9UKT9 (peptide)
chain: FKCEICGAHFTQKGNLLRHIKL
B47: Q9UKT9 (peptide)
chain: FLCNQCGAHFTQKGNLLRHIKL
B48: Q9UKT9 (peptide)
chain: FICSVCGHLFTQKGNLLRHIKL
B49: Q9UKT9 (peptide)
chain: FECNQCGHNFTQKGNLLRHIKL
B50: Q9UKT9 (peptide)
chain: FQCDQCGAKFTQKGNLLRHIKL

Molecular target: no compound (DMSO)
Test: log2 fold change of degron read counts, EGFP-low vs EGFP+ sorted cells; higher = lower degron-EGFP level without compound (poor expression or instability)
Conditions: compound: DMSO control; 18 h
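Further: jurkat cells carrying a lentiviral library of mutant zinc finger degrons fused to EGFP plus mCherry, mCherry+ cells FACS sorted, degron abundance counted by next-generation sequencing.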

Row | Sequence | log2 fold change of degron read counts
1 | B1 | -0.613
2 | B2 | -0.771
3 | B3 | 0.395
4 | B4 | 0.087
5 | B5 | -1.52
6 | B6 | 1.79
7 | B7 | -0.0429
8 | B8 | 1.06
9 | B9 | 0.583
10 | B10 | -1.51
11 | B11 | -0.849
12 | B12 | 1.02
13 | B13 | -0.39
14 | B14 | 0.557
15 | B15 | -0.165
16 | B16 | -1.07
17 | B17 | 1.29
18 | B18 | 0.623
19 | B19 | -0.149
20 | B20 | -0.371
21 | B21 | 3.12
22 | B22 | -0.304
23 | B23 | 1.11
24 | B24 | 0.0206
25 | B25 | 0.768

Row | Sequence | log2 fold change of degron read counts
26 | B26 | -2.67
27 | B27 | 0.767
28 | B28 | 0.712
29 | B29 | -1.97
30 | B30 | -0.587
31 | B31 | -2.64
32 | B32 | -0.104
33 | B33 | -0.148
34 | B34 | -0.748
35 | B35 | -1.94
36 | B36 | 1.25
37 | B37 | -0.973
38 | B38 | 0.267
39 | B39 | 1.04
40 | B40 | 0.71
41 | B41 | -1.11
42 | B42 | -1.23
43 | B43 | -1.6
44 | B44 | -2.8
45 | B45 | -0.68
46 | B46 | -2.04
47 | B47 | -0.581
48 | B48 | -0.0755
49 | B49 | -0.764
50 | B50 | -1.34
